In publication PMC12136788:
This is one part of the list.

B1: chr2:39051162:39051270:-|CDS|ENSG00000115904|unk|total|mutant (ssRNA)
RNA: GGGAGUUCUACAGUCCGACGAUCAAAUAUAUUCCGUCGCACCGCCGAUAUACAUGAACUCCGUGUAAAGUUACUGGGCCAUACCGAAGAUACAGCCGAAAUGACAGAUGAAGGCAGUCCCCAUCCACCCGCCGGAAGCUGCUUCAACAGAGGAUUGAGCAUCA
B2: chr4:70820284:70820384:-|3pUTR|ENSG00000132463|msi1_unk|total|mutant (ssRNA)
RNA: GGGAGUUCUACAGUCCGACGAUCUGAACUGGUAUGGUUUGGCAGAACCGUUUUAAAUUUUGCUGUAUUUGAUUACUCCGAGACCGGAAUUUUUAAAAAUCAAAACAAAAAAUACCACAGCUCCGUGUAAAUGACAAUUUGGCGCAACAGAGGAUUGAGCAUCA
B3: chr6:122432834:122432935:+|3pUTR|ENSG00000025156|msi1|total|mutant (ssRNA)
RNA: GGGAGUUCUACAGUCCGACGAUCAUAUACCGAAAGAUCGGGGGUGGGAUGGGAUGGAGUGAGCCCCAUCCAGUCCGUUGGACCCGUUUUAAAUAAAGGUUUUCCGGUUUGUGUUUUUUUGAACCAUACUGUUCCGUAAAAUAACAACAGAGGAUUGAGCAUCA
B4: chr7:7573188:7573293:+|CDS|ENSG00000164654|unk|FALSE|bound_elsewhere (ssRNA)
RNA: GGGAGUUCUACAGUCCGACGAUCCCAUAUUUCCACGAUCGUGUUGCUUCCUUCUAUGAAGGUCAGGUUGCAAUAUGGGAUCUUAGAAAAUUUGAGAAGCCAGUUUUGACAUUGACUGAGCAACCAAAACCCUUAACAAAAGUACAACAGAGGAUUGAGCAUCA
B5: chr2:216675642:216675774:-|3pUTR|ENSG00000115461|msi1|FALSE|unique (ssRNA)
RNA: GGGAGUUCUACAGUCCGACGAUCUUUUUCUUUGUUUUUUUCUUUCUUCCUUUCUUUCAAAGGUUUGCAUUAACUUUUCAAAGUAGUUCCUAUAGGGGCAUUGAGGAGCUUCCUCAUUCUGGGAAAACUGAGAAAACCCAUAUUCAACAGAGGAUUGAGCAUCA
B6: chr17:48133441:48133816:-|three_prime_utr|ENSG00000141293|control|control|control (ssRNA)
RNA: GGGAGUUCUACAGUCCGACGAUCAGCUACCAGUAAGACAAGUGGGAAGAGGCACGUUCAUCAAACCUGUUACUAAACCAGCCUAGUCAUAGCUCAUCCCCAUCUCUAAAUGUGUCCACACAACCACAUCUGCCUUUUCCACAACAACAGAGGAUUGAGCAUCA
B7: chr12:39370042:39370220:-|CDS|ENSG00000139116|unk|total|mutant (ssRNA)
RNA: GGGAGUUCUACAGUCCGACGAUCUACUUUUGACUAUGUAUUUGACAUUGACUCCCAGCAAGAGCAGAUCUACAUUCAAUGUACCGAAAAACUAAUUGAAGGUUGCUUUGAAGGAUACAAUGCUACAGUUUUUGCUUAUGGACACAACAGAGGAUUGAGCAUCA
B8: chr16:14644374:14644495:+|CDS|ENSG00000103429|unk|FALSE|unique (ssRNA)
RNA: GGGAGUUCUACAGUCCGACGAUCAACACAAUGGACCUUGAGAGAGAUGAACCUCUCAAAAGCACCGGCCCUCAGAUUUCUGUUAGUGAAUUUUCUUGCCACUGCUGCUACGACAUCCUGGUUAACCCCACCACCUUGAACUGUCAACAGAGGAUUGAGCAUCA
B9: ENSG00000198589:be:win_2401|CDS|ENSG00000198589|bound_else_gene|NA|bound_elsewhere_windowed (ssRNA)
RNA: GGGAGUUCUACAGUCCGACGAUCCAUAAACAGCAUCCAGAUCCUGAUUCUUCAGUGAAGAUACAAAACCCUCAGAUACUAAAAGUAAUUGCGACCCUACUUCGAAAUUCUCCCCAGUGCCCAGAGAGCAUGGAGGUUCGCAGACAACAGAGGAUUGAGCAUCA
B10: chr1:32195301:32195402:+|3pUTR|ENSG00000084652|msi1|total|mutant (ssRNA)
RNA: GGGAGUUCUACAGUCCGACGAUCUGACCUGGCUGGCAUCUGGCACUUGCAAUUUUGGAUUUUGUGGGUCAGUUUUACGUACACCGGGCAUUUUGCAAGGCCUUGCAAAUGCAUUUAUACCUGUAAGUGUACAGUGGGCUUGCACAACAGAGGAUUGAGCAUCA
B11: chr8:81702113:81702224:-|3pUTR|ENSG00000104231|unk|FALSE|unique (ssRNA)
RNA: GGGAGUUCUACAGUCCGACGAUCGUAUAGCCUUGCUGUCUGUCUACAUCAUGAUGUAUAAAUUGAUAUAUCUACAUGAAUUAUAGAAACUUAGAAGUGAUCUUUAUUCAGUCUUAUAAUUUUUACAUGAAGAAUCUUAGGCCUCAACAGAGGAUUGAGCAUCA
B12: chr5:136977529:136977630:-|3pUTR|ENSG00000152377|msi1|FALSE|unique (ssRNA)
RNA: GGGAGUUCUACAGUCCGACGAUCACAAGCCAUCUCUUUCAUUUCUGCUUGAAGCCCCUUGGCUGCAGCAAUCCUGUCUGCCAUAGGUUUCUUCCUUCCUUACCUACUCAAGGGCUUUUUCUAAGGCAUGCACACAUAUCUCCUCAACAGAGGAUUGAGCAUCA
B13: chr18:47840682:47840783:-|3pUTR|ENSG00000175387|unk|total|mutant (ssRNA)
RNA: GGGAGUUCUACAGUCCGACGAUCAUACCGUUUUUCCAAAGGUAUUUUACAAUAUUUCAACAGCAGACCUUCUGCUCUUCGAGCCGUUUGAUUUGGUUCCGUAACCAGAUUGCAUUAUGAAAUGGGCCUUUUGUAAAUGUAAUUCAACAGAGGAUUGAGCAUCA
B14: chr9:123379744:123379845:-|3pUTR|ENSG00000119522|msi1|FALSE|unique (ssRNA)
RNA: GGGAGUUCUACAGUCCGACGAUCGUGUUUCAGCAUAGAUUCCAGUUUCGCACCCUGGGCAGACCCCCAGGCCCCAUCCGGGAUAGGGCAGAGGAGGUGCUGGCGGCCCCAGGGAAGGAGGGUGUGUACCCCAAGGCCCCCUGGCAACAGAGGAUUGAGCAUCA
B15: chr8:41263332:41263433:-|3pUTR|ENSG00000104332|msi1|FALSE|unique (ssRNA)
RNA: GGGAGUUCUACAGUCCGACGAUCCAGCAUGCCCGCCUAGUUACCUACCGGAGAGUUAUCCUGAUAAAUUAACCUCUCACAGUUAGUGAUCCUGUCCUUUUAACACCUUUUUUGUGGGGUUCUCUCUGACCUUUCAUCGUAAAGCAACAGAGGAUUGAGCAUCA
B16: chr20:3582170:3582271:+|CDS|ENSG00000088812|msi1|total|mutant (ssRNA)
RNA: GGGAGUUCUACAGUCCGACGAUCGGCCUUCGGAAGAUCAAUGUGUCCUACUGGUGCUGGGAAGAUAUGUCCCCAUUUACAAACCGUUUACUACAGUGGAUGCCGUCUGAGCCCAGUGAUGCUGGAUUCUGUGGAAUUUUAUCACAACAGAGGAUUGAGCAUCA
B17: chr3:94057921:94060947:-|three_prime_utr|ENSG00000178700|control|control|control (ssRNA)
RNA: GGGAGUUCUACAGUCCGACGAUCAGGUGUUUUCUGGUUUAAGUUGUUCCCCCUCCCUCUGAGAAAAGUAUGCAUUUUUACAUUAGAAAAGGGACUUUUGUUGACUUCAGAUCUAUGGAUAAUUAUUUCUAAGCAACGUGUUUUCAACAGAGGAUUGAGCAUCA
B18: ENSG00000198589:be:win_8801|3pUTR|ENSG00000198589|bound_else_gene|NA|bound_elsewhere_windowed (ssRNA)
RNA: GGGAGUUCUACAGUCCGACGAUCAAGUCUAUUUUCACCAAUUAUGGAAACAUACAGUGGAGCAAGUAAACCACUUAUUCCAGCUAUAAUAUUAUGAAGAACAUUUCCCAUGCAUCUACAAGCUUGAGAAAUAGGAUUUUCACACAACAGAGGAUUGAGCAUCA
B19: chr12:65247554:65247656:+|3pUTR|ENSG00000174106|unk|total|mutant (ssRNA)
RNA: GGGAGUUCUACAGUCCGACGAUCCAGUAUUUAAUUUGUUUCAGUAAACUUACUUUAUUACUGUUUAUGAUUUCAGAUAAAAACCGUUGCUGAGUAAAUUUUACUUGUAAUCUACAAUUGGCUUUUUAAAAAUAACCUGUUGAUCAACAGAGGAUUGAGCAUCA
B20: chr2:224378697:224380208:-|three_prime_utr|ENSG00000124019|control|control|control (ssRNA)
RNA: GGGAGUUCUACAGUCCGACGAUCUCCUUCAUCUGCAAGUUCAGGGUGAAGAAAAAGAAGAAGAUGAAGAAGAAUUCUUUAUAUAGCAUAAAAUAAAUGUGGUUUUCUAAAACACAAGAUCAGAUAAAAUGUUCUAGAAAUGGACAACAGAGGAUUGAGCAUCA
B21: chr1:51287257:51288280:-|three_prime_utr|ENSG00000085831|control|control|control (ssRNA)
RNA: GGGAGUUCUACAGUCCGACGAUCCAUGGAGUCAAGGACACACUUUCGAAUCCAGGCAGCCACACUCCAAGCCAAGUCUUCCCUAGAGAACAGCAGCAGAUCCAUGGUCUCAUCAGUGUCCUUGUAGCUUUGUGCAGCAGUUCCCAACAGAGGAUUGAGCAUCA
B22: chr7:2664602:2664704:+|3pUTR|ENSG00000136295|msi1_unk|total|mutant (ssRNA)
RNA: GGGAGUUCUACAGUCCGACGAUCUCCUCCAGCCUCUGCCGGGCCAUGGCUGUAUGUACUGUCGCUGUGUUUUUUUGUUUUUUCCGAACUGGGUUUGGGGGCUGAUUUUUAUUUCUUUGGGGGCUUUUUUUCUUGGCAAAUACUCAACAGAGGAUUGAGCAUCA

Target: T1, UNK ZnF1-6 (called full-length) (human, UniProt Q9C0B0 30-357)
T1 sequence: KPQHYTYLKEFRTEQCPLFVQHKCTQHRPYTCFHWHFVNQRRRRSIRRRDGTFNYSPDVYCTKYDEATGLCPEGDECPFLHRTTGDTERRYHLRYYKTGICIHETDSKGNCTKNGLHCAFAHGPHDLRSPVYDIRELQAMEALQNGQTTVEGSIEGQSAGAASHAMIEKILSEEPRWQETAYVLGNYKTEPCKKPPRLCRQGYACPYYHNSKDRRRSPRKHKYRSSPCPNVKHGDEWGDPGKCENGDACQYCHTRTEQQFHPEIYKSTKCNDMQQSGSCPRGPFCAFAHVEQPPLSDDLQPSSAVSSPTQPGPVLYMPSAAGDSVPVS
Assay: nsRBNS (natural sequence RNA bind-n-seq); RBNS binding buffer (assumed for nsRBNS): 25 mM Tris pH 7.5, 150 mM KCl, 3 mM MgCl2, 0.01% Triton X-100, 500 ug/ml BSA, 20 U/ml SUPERase-In, 4 C; UNK is unkempt and MSI1 is Musashi-1; names of the RNAs are library labels; protein concentration not given here; high values mean tight binding

Binder | binding signal [enrichment R]
B1 | 0.615
B2 | 0.414
B3 | 0.521
B4 | 0.375
B5 | 0.426
B6 | 0.873
B7 | 0.492
B8 | 0.765
B9 | 0.432
B10 | 0.625
B11 | 1.15
B12 | 0.574
B13 | 0.426
B14 | 0.57
B15 | 1.07
B16 | 0.562
B17 | 0.859
B18 | 0.449
B19 | 0.307
B20 | 1.68
B21 | 0.824
B22 | 1.44
